# The list shows a part of the results.
# How the values were obtained:
# Assay in all cases: glycan array binding signal (z-score within array); higher = stronger binding
# Conditions in all cases: glycan notation: IUPAC condensed, linker removed
# [1] = target: Gal(b1-4)GlcNAc(b1-6)GalNAc
# Method in brief: (§1)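 Glycan array data came from 3228 arrays in the Consortium for Functional Glycomics database, and only arrays with an available protein sequence were kept. Glycan names were put into IUPAC-condensed notation, and columns mapping to the same glycan were averaged. The binding signal is a within-array Z-score, averaged across arrays of one protein sequence run at different concentrations or buffers and across linkers. A negative Z-score can be read as non-binding.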
# [2] = target: Gal(b1-4)GlcNAc(b1-6)[Gal(b1-3)]GalNAc
# Method in brief: as §1
# [3] = target: Gal(b1-4)GlcNAc(b1-6)[Gal(b1-4)GlcNAc(b1-3)]GalNAc
# Method in brief: as §1
# [4] = target: Gal(b1-4)GlcNAc6P
# Method in brief: as §1
# [5] = target: Gal(b1-6)Gal
# Method in brief: as §1
# [6] = target: Gal3S(b1-3)GalNAc
# Method in brief: as §1
# [7] = target: Gal3S(b1-3)GlcNAc
# Method in brief: as §1
# [8] = target: Gal3S(b1-3)[Fuc(a1-4)]GlcNAc
# Method in brief: as §1
# [9] = target: Gal3S(b1-4)Glc
# Method in brief: as §1
# [10] = target: Gal3S(b1-4)Glc6S
# Method in brief: as §1
# [11] = target: Gal3S(b1-4)GlcNAc
# Method in brief: as §1
# [12] = target: Gal3S(b1-4)[Fuc(a1-3)]Glc6S
# Method in brief: as §1
# [13] = target: Gal3S(b1-4)[Fuc(a1-3)]GlcNAc
# Method in brief: as §1
# [14] = target: Gal3S(b1-4)[Fuc(a1-3)]GlcNAc6S
# Method in brief: as §1
# [15] = target: Gal3S4S(b1-4)GlcNAc
# Method in brief: as §1
# [16] = target: Gal3S6S(b1-4)GlcNAc
# Method in brief: as §1
# [17] = target: Gal3S6S(b1-4)GlcNAc6S
# Method in brief: as §1
# [18] = target: Gal4S(b1-4)GlcNAc
# Method in brief: as §1
# [19] = target: Gal4S6S(b1-4)GlcNAc
# Method in brief: as §1
# [20] = target: Gal6P(b1-4)GlcNAc
# Method in brief: as §1
# [21] = target: Gal6S(b1-3)GlcNAc
# Method in brief: as §1
# [22] = target: Gal6S(b1-3)GlcNAc6S
# Method in brief: as §1
# [23] = target: Gal6S(b1-4)Glc
# Method in brief: as §1
# [24] = target: Gal6S(b1-4)Glc6S
# Method in brief: as §1
# [25] = target: Gal6S(b1-4)GlcNAc
# Method in brief: as §1
# [26] = target: Gal6S(b1-4)GlcNAc6S
# Method in brief: as §1
# [27] = target: GalNAc(a1-3)Gal
# Method in brief: as §1
# [28] = target: GalNAc(a1-3)GalNAc
# Method in brief: as §1
# [29] = target: GalNAc(a1-3)GalNAc(b1-3)Gal(a1-4)Gal(b1-4)Glc
# Method in brief: as §1
# [30] = target: GalNAc(a1-3)GalNAc(b1-3)Gal(a1-4)Gal(b1-4)GlcNAc
# Method in brief: as §1
# [31] = target: GalNAc(b1-3)Gal
# Method in brief: as §1
# [32] = target: GalNAc(b1-3)Gal(a1-4)Gal(b1-4)GlcNAc
# Method in brief: as §1
# [33] = target: GalNAc(b1-3)Gal(a1-4)Gal(b1-4)GlcNAc(b1-3)Gal(b1-4)Glc
# Method in brief: as §1
# [34] = target: GalNAc(b1-3)Gal(a1-6)Gal(b1-4)Glc
# Method in brief: as §1
# [35] = target: GalNAc(b1-3)GalNAc
# Method in brief: as §1
# [36] = target: GalNAc(b1-3)GlcNAc
# Method in brief: as §1
# [37] = target: GalNAc(b1-4)Gal(b1-4)Glc
# Method in brief: as §1
# [38] = target: GalNAc(b1-4)GlcNAc
# Method in brief: as §1
binder,measurement,setting,value
PX14343A-bvu-539-29-539 (Bacteroides vulgatus) (protein) DSLTESSSNTFWQTPDDALMALASCYDALQSNQLYNSDQYSLGPLYMDCISDNGGHFNWSGWMEGYDMAMGIHTPSSSIIGSYWKDCYEVISRCNVLIANIDRVDMDASQKAIYQAEAKTIRALMYINLTMTYQDVPFLTAPLTIDEAECEKTDRAAIVAHVMTDLQDAAEVLPQNASSRGHITKGAALSLLGRVALYNEKWDDAIAAYKQVQGLGYSLDPSYAKLFTQSGETSPEIIFAVRYEGPGMSEGAAFNAHWNTPLEAMNGTIDLADAYYCKDGKPTTDTKIAELNGGGGLDVSKPNPAHFENRDPRLYSTLFVPGMLWNGKGGIDTSASNPYANVYGGAAASLSTVYVYKYFDPTDTSNSWDNGQDFYVVRYAEVLLSLAEAMVQKGGYVYSDVTALVNEVRQRADVNMPTVEEVEGTSLSKDELLEVIKHERRVELAFEGLRLFDLYRWKELDKAVANIENERTMYGLAYEARKFNGERDYVWPLPTAELDTNKKLVQHDLWK,glycan array binding signal (z-score),[1],-0.291
same,glycan array binding signal (z-score),[2],-0.318
same,glycan array binding signal (z-score),[3],-0.235
same,glycan array binding signal (z-score),[4],-0.242
same,glycan array binding signal (z-score),[5],-0.125
same,glycan array binding signal (z-score),[6],-0.06
same,glycan array binding signal (z-score),[7],-0.038
same,glycan array binding signal (z-score),[8],-0.171
same,glycan array binding signal (z-score),[9],0.037
same,glycan array binding signal (z-score),[10],-0.101
same,glycan array binding signal (z-score),[11],-0.098
same,glycan array binding signal (z-score),[12],-0.051
same,glycan array binding signal (z-score),[13],-0.121
same,glycan array binding signal (z-score),[14],-0.102
same,glycan array binding signal (z-score),[15],-0.103
same,glycan array binding signal (z-score),[16],-0.045
same,glycan array binding signal (z-score),[17],0.278
same,glycan array binding signal (z-score),[18],-0.12
same,glycan array binding signal (z-score),[19],-0.247
same,glycan array binding signal (z-score),[20],-0.055
same,glycan array binding signal (z-score),[21],-0.016
same,glycan array binding signal (z-score),[22],0.74
same,glycan array binding signal (z-score),[23],-0.179
same,glycan array binding signal (z-score),[24],0.222
same,glycan array binding signal (z-score),[25],-0.071
same,glycan array binding signal (z-score),[26],-0.124
same,glycan array binding signal (z-score),[27],0.27
same,glycan array binding signal (z-score),[28],-0.355
same,glycan array binding signal (z-score),[29],-0.177
same,glycan array binding signal (z-score),[30],-0.196
same,glycan array binding signal (z-score),[31],-0.17
same,glycan array binding signal (z-score),[32],-0.221
same,glycan array binding signal (z-score),[33],-0.121
same,glycan array binding signal (z-score),[34],0.113
same,glycan array binding signal (z-score),[35],-0.33
same,glycan array binding signal (z-score),[36],-0.119
same,glycan array binding signal (z-score),[37],0.018
same,glycan array binding signal (z-score),[38],0.181
